We go through four molecules from patent US12630643B2, “CD40 binding protein, bispecific conjugate thereof and method of treating cancer” (priority 2020, dated 2026).

B1: A9 C127S: A9 VH with IgG2 C127S constant domain; heavy chain SEQ ID NO: 74, light chain SEQ ID NO: 9 (antibody)
heavy: EVQLLESGGGLVQPGGSLRLSCAASGFTFSSYAMSWVRQAPGKGLEWVSGISGYSGSTYYADSVKGRFTISRDNSKNTLYLQMNSLRAEDTAVYYCARYYSYYGYYYFDYWGQGTLVTVSSASTKGPSVFPLAPSSRSTSESTAALGCLVKDYFPEPVTVSWNSGALTSGVHTFPAVLQSSGLYSLSSVVTVPSSNFGTQTYTCNVDHKPSNTKVDKTVERKCCVECPPCPAPPVAGPSVFLFPPKPKDTLMISRTPEVTCVVVDVSHEDPEVQFNWYVDGVEVHNAKTKPREEQFNSTFRVVSVLTVVHQDWLNGKEYKCKVSNKGLPAPIEKTISKTKGQPREPQVYTLPPSREEMTKNQVSLTCLVKGFYPSDIAVEWESNGQPENNYKTTPPMLDSDGSFFLYSKLTVDKSRWQQGNVFSCSVMHEALHNHYTQKSLSLSPGK
light: DIQMTQSPSSLSASVGDRVTITCRASQSISSYLNWYQQKPGKAPKLLIYAASSLQSGVPSRFSGSGSGTDFTLTISSLQPEDFATYYCQQGYPYPFTFGQGTKLEIKRTVAAPSVFIFPPSDEQLKSGTASVVCLLNNFYPREAKVQWKVDNALQSGNSQESVTEQDSKDSTYSLSSTLTLSKADYEKHKVYACEVTHQGLSSPVTKSFNRGEC
modifications: A9 VH domain and IgG2 C127S constant domain; Light chain
B2: X-SM083-bi-30: bispecific: Y-SM083-A9 IgG2 C127S, FITC8 scFv at CL, (G4S)2 linker (antibody)
heavy: EVQLLESGGGLVQPGGSLRLSCAASGFTFSSYAMSWVRQAPGKGLEWVSGISGYSGSTYYADSVKGRFTISRDNSKNTLYLQMNSLRAEDTAVYYCARYYSYYGYYYFDYWGQGTLVTVSSASTKGPSVFPLAPSSRSTSESTAALGCLVKDYFPEPVTVSWNSGALTSGVHTFPAVLQSSGLYSLSSVVTVPSSNFGTQTYTCNVDHKPSNTKVDKTVERKCCVECPPCPAPPVAGPSVFLFPPKPKDTLMISRTPEVTCVVVDVSHEDPEVQFNWYVDGVEVHNAKTKPREEQFNSTFRVVSVLTVVHQDWLNGKEYKCKVSNKGLPAPIEKTISKTKGQPREPQVYTLPPSREEMTKNQVSLTCLVKGFYPSDIAVEWESNGQPENNYKTTPPMLDSDGSFFLYSKLTVDKSRWQQGNVFSCSVMHEALHNHYTQKSLSLSPGK
light: DIQMTQSPSSLSASVGDRVTITCRASQSISSYLNWYQQKPGKAPKLLIYAASSLQSGVPSRFSGSGSGTDFTLTISSLQPEDFATYYCQQGYPYPFTFGQGTKLEIKRTVAAPSVFIFPPSDEQLKSGTASVVCLLNNFYPREAKVQWKVDNALQSGNSQESVTEQDSKDSTYSLSSTLTLSKADYEKHKVYACEVTHQGLSSPVTKSFNRGECGGGGSGGGGSEVQLLESGGGLVQPGGSLRLSCAASGFTFSNYWMSWVRQAPGKGLEWVSGISGNGGYTYFADSVKDRFTISRDNSKNTLYLQMNSLRAEDTAVYYCAGGDGSGWSFWGQGTLVTVSSGGGGSGGGGSGGGGSGGGGSQSVLTQPPSASGTPGQRVTISCTGSSSNIGAGYDVHWYQQLPGTAPKLLIYGNNNRPSGVPDRFSGSKSGTSASLAISGLRSEDEADYYCAAWDDSLSGRVFGGGTKLTVL
B3: X-SM083-bi-29: bispecific: Y-SM083-A9 IgG2 C127S, FITC8 scFv at CH3, (G4S)2 linker (antibody)
heavy: EVQLLESGGGLVQPGGSLRLSCAASGFTFSSYAMSWVRQAPGKGLEWVSGISGYSGSTYYADSVKGRFTISRDNSKNTLYLQMNSLRAEDTAVYYCARYYSYYGYYYFDYWGQGTLVTVSSASTKGPSVFPLAPSSRSTSESTAALGCLVKDYFPEPVTVSWNSGALTSGVHTFPAVLQSSGLYSLSSVVTVPSSNFGTQTYTCNVDHKPSNTKVDKTVERKCCVECPPCPAPPVAGPSVFLFPPKPKDTLMISRTPEVTCVVVDVSHEDPEVQFNWYVDGVEVHNAKTKPREEQFNSTFRVVSVLTVVHQDWLNGKEYKCKVSNKGLPAPIEKTISKTKGQPREPQVYTLPPSREEMTKNQVSLTCLVKGFYPSDIAVEWESNGQPENNYKTTPPMLDSDGSFFLYSKLTVDKSRWQQGNVFSCSVMHEALHNHYTQKSLSLSPGKGGGGSGGGGSEVQLLESGGGLVQPGGSLRLSCAASGFTFSNYWMSWVRQAPGKGLEWVSGISGNGGYTYFADSVKDRFTISRDNSKNTLYLQMNSLRAEDTAVYYCAGGDGSGWSFWGQGTLVTVSSGGGGSGGGGSGGGGSGGGGSQSVLTQPPSASGTPGQRVTISCTGSSSNIGAGYDVHWYQQLPGTAPKLLIYGNNNRPSGVPDRFSGSKSGTSASLAISGLRSEDEADYYCAAWDDSLSGRVFGGGTKLTVL
light: DIQMTQSPSSLSASVGDRVTITCRASQSISSYLNWYQQKPGKAPKLLIYAASSLQSGVPSRFSGSGSGTDFTLTISSLQPEDFATYYCQQGYPYPFTFGQGTKLEIKRTVAAPSVFIFPPSDEQLKSGTASVVCLLNNFYPREAKVQWKVDNALQSGNSQESVTEQDSKDSTYSLSSTLTLSKADYEKHKVYACEVTHQGLSSPVTKSFNRGEC
B4: X-SM083-bi-28: bispecific: Y-SM083-A9 IgG2, FITC8 scFv at CL, (G4S)2 linker (antibody)
heavy: EVQLLESGGGLVQPGGSLRLSCAASGFTFSSYAMSWVRQAPGKGLEWVSGISGYSGSTYYADSVKGRFTISRDNSKNTLYLQMNSLRAEDTAVYYCARYYSYYGYYYFDYWGQGTLVTVSSASTKGPSVFPLAPCSRSTSESTAALGCLVKDYFPEPVTVSWNSGALTSGVHTFPAVLQSSGLYSLSSVVTVPSSNFGTQTYTCNVDHKPSNTKVDKTVERKCCVECPPCPAPPVAGPSVFLFPPKPKDTLMISRTPEVTCVVVDVSHEDPEVQFNWYVDGVEVHNAKTKPREEQFNSTFRVVSVLTVVHQDWLNGKEYKCKVSNKGLPAPIEKTISKTKGQPREPQVYTLPPSREEMTKNQVSLTCLVKGFYPSDIAVEWESNGQPENNYKTTPPMLDSDGSFFLYSKLTVDKSRWQQGNVFSCSVMHEALHNHYTQKSLSLSPGK
light: DIQMTQSPSSLSASVGDRVTITCRASQSISSYLNWYQQKPGKAPKLLIYAASSLQSGVPSRFSGSGSGTDFTLTISSLQPEDFATYYCQQGYPYPFTFGQGTKLEIKRTVAAPSVFIFPPSDEQLKSGTASVVCLLNNFYPREAKVQWKVDNALQSGNSQESVTEQDSKDSTYSLSSTLTLSKADYEKHKVYACEVTHQGLSSPVTKSFNRGECGGGGSGGGGSEVQLLESGGGLVQPGGSLRLSCAASGFTFSNYWMSWVRQAPGKGLEWVSGISGNGGYTYFADSVKDRFTISRDNSKNTLYLQMNSLRAEDTAVYYCAGGDGSGWSFWGQGTLVTVSSGGGGSGGGGSGGGGSGGGGSQSVLTQPPSASGTPGQRVTISCTGSSSNIGAGYDVHWYQQLPGTAPKLLIYGNNNRPSGVPDRFSGSKSGTSASLAISGLRSEDEADYYCAAWDDSLSGRVFGGGTKLTVL

In the assay the test system is human monocyte-derived DC (MoDC). Briefly: MoDC activation, IL-12p40 ELISA. It counts as cell-based. The settings on record: Example 13; 100-12.5 nM, 48 hours. On the technique in general: ELISA stands for enzyme-linked immunosorbent assay.
Take B1: the “IL-12 production (agonistic potential)” value is reported as “dose-dependent agonistic potential”.

With B2, the “IL-12 production (agonistic potential)” value is “retained their respective agonistic potential in a dose-dependent manner”. Take B3: the “IL-12 production (agonistic potential)” value was “retained their respective agonistic potential in a dose-dependent manner”. Then B4, with “retained their respective agonistic potential in a dose-dependent manner”.
